Source: the supplement of paper PMC9446081
The campaign covered roughly 39,000 compounds. About 220 (0.56%) showed activity. The list shows a part of the results.

tested on: Escherichia coli K-12 BW25113; test: relative growth (OD600 normalised to plate interquartile mean) (fraction); higher = less growth inhibition, active = 0.2 or less; details: 50 µM; LB; incubation time: overnight (16-24 h)
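Further: static incubation at 37 °C against the wild-type strain, values averaged over two biological replicates.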

Row | Structure (SMILES) | relative growth
1 | O=c1[nH]snc1N1CCCCC1 | inactive: 0.933
2 | C[C@@H]1CN([C@H](C)CO)C(=O)c2cc(NC(=O)Nc3ccccc3)ccc2O[C@H]1CN(C)C(=O)Nc1cccc2ccccc12 | inactive: 1.03
3 | COc1ccc(S(=O)(=O)Nc2ccc3c(c2)CC(=O)N([C@@H](C)CO)C[C@H](C)[C@H](CN(C)CC2CC2)O3)cc1 | inactive: 0.993
4 | C[C@@H]1CN([C@@H](C)CO)C(=O)c2cc(NS(=O)(=O)c3ccc(F)cc3)ccc2O[C@@H](C)CCCCO[C@H]1CN(C)S(=O)(=O)c1ccc(Cl)cc1 | inactive: 1.04
5 | Fc1ccc(-n2cccc2)c(F)c1 | inactive: 0.979
6 | O=C(C[C@@H]1C=C[C@H](NC(=O)C2CC2)[C@H](CO)O1)NCCCN1CCOCC1 | inactive: 0.97
7 | C[C@H]1CN([C@@H](C)CO)C(=O)c2cccc(NC(=O)Nc3ccc4c(c3)OCO4)c2O[C@H]1CN(C)Cc1ccc(C(=O)Nc2ccccc2N)cc1 | inactive: 0.98
8 | Cc1noc(C)c1NC(=O)N(C)C[C@H]1OCCCC[C@H](C)Oc2ccc(NS(=O)(=O)c3cccs3)cc2C(=O)N([C@H](C)CO)C[C@@H]1C | inactive: 0.998
9 | C[C@H](CO)N1C[C@H](C)[C@@H](CN(C)Cc2ccc(C(F)(F)F)cc2)Oc2ccc(NC(=O)C3CCCCC3)cc2CC1=O | inactive: 1.03
10 | Cc1noc(C)c1S(=O)(=O)N(C)C[C@@H]1Oc2ccc(NC(=O)Cc3ccccc3)cc2CC(=O)N([C@H](C)CO)C[C@@H]1C | inactive: 0.992
11 | C[C@H](CO)N1C[C@H](C)[C@H](CN(C)S(=O)(=O)c2cn(C)cn2)OCCCC[C@H](C)Oc2ccc(NC(=O)Nc3cccc4ccccc34)cc2C1=O | inactive: 0.994
12 | CN(C)CC(=O)N1CCO[C@]2(COCCN(c3cncnc3)C2)C1 | inactive: 0.989
13 | Cc1noc(C)c1NC(=O)N(C)C[C@@H]1Oc2c(NC(=O)c3ccncc3)cccc2C(=O)N([C@@H](C)CO)C[C@H]1C | inactive: 1.01
14 | CN1C(=O)c2cc(NS(=O)(=O)c3ccc(F)cc3)ccc2OC[C@H]2O[C@H](CC(=O)NCC(F)(F)F)CC[C@@H]21 | inactive: 0.963
15 | C[C@@H]1CN([C@@H](C)CO)C(=O)c2cc(NC(=O)Nc3ccc(F)cc3)ccc2O[C@@H](C)CCCCO[C@H]1CN(C)C(=O)CCCN(C)C | inactive: 0.998
16 | C[C@@H]1CN([C@@H](C)CO)C(=O)c2cc(NS(=O)(=O)c3ccc(F)cc3)ccc2O[C@@H](C)CCCCO[C@H]1CN(C)C(=O)CCC(F)(F)F | inactive: 1
17 | COc1ccc(NC(=O)Nc2cccc3c2O[C@@H](CN(C)C(=O)Nc2ccc(C(F)(F)F)cc2)[C@H](C)CN([C@H](C)CO)C3=O)cc1 | inactive: 0.796
18 | N[C@@H]1CCN(O)C1=O | inactive: 1
19 | COc1ccc(S(=O)(=O)N2CCC(N3C[C@H]4CC[C@@H](N)[C@@H]4C3)CC2)cc1 | inactive: 0.978

Row | Structure (SMILES) | relative growth
20 | NC(=O)N1CCc2n[nH]c(C(=O)N3CCOCC3)c2C1 | inactive: 0.993
21 | COc1ccc(S(=O)(=O)Nc2cccc3c2O[C@H](CN(C)Cc2ccc(-c4ccccc4)cc2)[C@H](C)CN([C@@H](C)CO)C3=O)cc1 | inactive: 1
22 | COc1ccc(NC(=O)Nc2ccc3c(c2)C(=O)N([C@H](C)CO)C[C@@H](C)[C@H](CN(C)S(=O)(=O)c2cccs2)OCCCC[C@H](C)O3)cc1 | inactive: 1.02
23 | COc1ccc(NC(=O)N(C)C[C@H]2OCCCC[C@H](C)Oc3ccc(NC(=O)Nc4cccc5ccccc45)cc3C(=O)N([C@H](C)CO)C[C@H]2C)cc1 | inactive: 0.884
24 | CCCCC[C@H]1C[C@H](O[C@H]2O[C@@H](CO)[C@@H](O)[C@@H](O)[C@@H]2O)CC(=O)O1 | inactive: 0.991
25 | C[C@@H]1CCCCO[C@H](CN(C)C(=O)Nc2ccccc2)[C@@H](C)CN([C@H](C)CO)C(=O)c2cc(NC(=O)Cc3ccccc3)ccc2O1 | inactive: 0.984
26 | C[C@H](CO)N1C[C@H](C)[C@H](CN(C)S(=O)(=O)c2ccc(Cl)cc2)OCCCC[C@H](C)Oc2ccc(NS(=O)(=O)c3cccs3)cc2C1=O | inactive: 0.999
27 | COc1ccc(-c2cnc3c(c2)C(=O)N([C@H](C)CO)C[C@@H](C)[C@@H](CN(C)C(=O)Cc2cccnc2)O3)cc1 | inactive: 1.02
28 | O=C(C[C@@H]1C[C@@H]2c3cc(NC(=O)c4ccc5c(c4)OCO5)ccc3O[C@@H]2[C@@H](CO)O1)NCCN1CCCCC1 | inactive: 1.01
29 | CC(C)NC(=O)N(C)C[C@H]1OCCCC[C@H](C)Oc2ccc(NC(=O)C3CCCCC3)cc2C(=O)N([C@H](C)CO)C[C@H]1C | inactive: 1.01
30 | COCCC(=O)N1CCN(c2ccccn2)CC1 | inactive: 0.974
31 | CCOC(=O)CC1=NNC(=N)SC1 | inactive: 1
32 | CO[C@@H]1CN(C)C(=O)c2cc(NC(=O)C3CCOCC3)ccc2OC[C@@H](C)N(C(=O)Nc2ccc(C(F)(F)F)cc2)C[C@H]1C | inactive: 0.939
33 | C[C@H](CO)N1C[C@H](C)[C@@H](CN(C)C(=O)Nc2ccc3c(c2)OCO3)Oc2ncc(-c3cncnc3)cc2C1=O | inactive: 0.999
34 | C[C@@H]1CN([C@H](C)CO)C(=O)c2cc(Br)cnc2O[C@@H]1CN(C)S(=O)(=O)c1ccc(F)cc1 | inactive: 1.01
35 | COc1cccc(S(=O)(=O)N2C[C@H](O)COC[C@H]3O[C@@H](CC(=O)N4CCN(C)CC4)CC[C@@H]32)c1 | inactive: 0.948
36 | COC(=O)[C@@H]1OC(=O)[C@H]2O[C@@]23[C@]2(C)[C@@H](O)C[C@H]4C(C)(C)[C@H](OC(C)=O)C[C@H](OC(C)=O)[C@]4(C)[C@@H]2CC[C@@]13C | inactive: 0.981
37 | COc1cccc(CNC(=O)c2cc3c(c(-c4cccc(-c5cccc(C#N)c5)c4)n2)[C@H](CCO)N([S@@](=O)C(C)(C)C)C3)c1 | inactive: 0.987
38 | CC(=O)N[C@H](Cc1ccc2ccccc2c1)C(=O)N[C@H](Cc1ccc(Cl)cc1)C(=O)N[C@H](Cc1cccnc1)C(=O)N[C@@H](CO)C(=O)N[C@@H](Cc1ccc(NC(=O)[C@@H]2CC(=O)NC(=O)N2)cc1)C(=O)N[C@H](Cc1ccc(NC(N)=O)cc1)C(=O)N[C@@H](CC(C)C)C(=O)N[C@@H](CCCCNC(C)C)C(=O)N1CCC[C@H]1C(=O)N[C@H](C)C(N)=O | inactive: 1.02

Row | Structure (SMILES) | relative growth
39 | C[C@H]1CN([C@@H](C)CO)C(=O)c2cc(NC(=O)Cn3cnnn3)ccc2O[C@@H]1CN(C)C(=O)Nc1ccc(C(F)(F)F)cc1 | inactive: 0.943
40 | COc1ccc(S(=O)(=O)Nc2ccc3c(c2)C(=O)N([C@H](C)CO)C[C@H](C)[C@@H](CN(C)CC2CCCCC2)OCCCC[C@H](C)O3)cc1 | inactive: 0.946
41 | CO[C@@H]1CN(C)C(=O)c2ccc(NC(=O)NC(C)C)cc2OC[C@H](C)N(Cc2ccc(-c3ccccn3)cc2)C[C@H]1C | inactive: 0.988
42 | C[C@H](CO)N1C[C@H](C)[C@H](CN(C)C(=O)Nc2ccc(C(F)(F)F)cc2)OCCCC[C@H](C)Oc2ccc(NC(=O)NC3CCCCC3)cc2C1=O | inactive: 1.01
43 | C[C@@H]1CCCCO[C@H](CN(C)S(=O)(=O)c2cn(C)cn2)[C@@H](C)CN([C@H](C)CO)C(=O)c2cc(NC(=O)c3ccncc3)ccc2O1 | inactive: 1.02
44 | COc1ccc(NC(=O)Nc2ccc3c(c2)C(=O)N([C@H](C)CO)C[C@@H](C)[C@H](CN(C)Cc2ccc4c(c2)OCO4)OCCCC[C@@H](C)O3)cc1 | inactive: 0.918
45 | COC1=C2C[C@@H](C)C[C@H](OC)[C@H](O)[C@@H](C)/C=C(\C)[C@H](OC(N)=O)[C@@H](OC)/C=C/C=C(\C)C(=O)NC(=CC1=O)C2=O | inactive: 0.961
46 | CCCNCC(O)COc1ccccc1C(=O)CCc1ccccc1.Cl (configuration not stated) | inactive: 0.929
47 | CN1CCN(C(=O)C[C@@H]2CC[C@H]3[C@@H](COC[C@H](O)CN3S(=O)(=O)c3cccc(Cl)c3)O2)CC1 | inactive: 1.01
48 | CCC(=O)Nc1nc(C(=O)NC)cs1 | inactive: 0.994
49 | CN(CP(=O)(O)CN1CCOCC1)S(C)(=O)=O | inactive: 1.02
50 | C[C@H](CO)N1C[C@H](C)[C@@H](CN(C)S(=O)(=O)c2cccs2)OCCCC[C@H](C)Oc2ccc(NC(=O)Nc3ccc4c(c3)OCO4)cc2C1=O | inactive: 1.01
51 | C[C@@H]1CN([C@H](C)CO)C(=O)c2cc(NS(=O)(=O)c3cn(C)cn3)ccc2O[C@H]1CN(C)C(=O)Nc1ccccc1 | inactive: 0.992
52 | O=C(C[C@H]1C[C@H]2c3cc(NC(=O)Nc4ccc(C(F)(F)F)cc4)ccc3O[C@H]2[C@@H](CO)O1)NCc1ccc(Cl)cc1 | inactive: 0.983
53 | CC(C)NC(=O)N(C)C[C@@H]1Oc2ccc(NC(=O)CCN3CCOCC3)cc2CC(=O)N([C@H](C)CO)C[C@H]1C | inactive: 0.993
54 | C[C@H](CO)N1C[C@H](C)[C@H](CN(C)C(=O)Nc2ccc3c(c2)OCO3)Oc2c(NS(=O)(=O)c3cn(C)cn3)cccc2C1=O | inactive: 0.99
55 | COc1ccc(NC(=O)Nc2ccc3c(c2)C(=O)N([C@H](C)CO)C[C@H](C)[C@@H](CN(C)C(=O)Nc2cccc4ccccc24)OCCCC[C@H](C)O3)cc1 | inactive: 1.03
56 | C[C@@H]1CN([C@H](C)CO)C(=O)c2cc(NC(=O)c3ccncc3)ccc2O[C@H]1CN(C)S(=O)(=O)c1cn(C)cn1 | inactive: 0.996
57 | C[C@H](CO)N1C[C@H](C)[C@@H](CN(C)S(=O)(=O)c2ccc(F)cc2)Oc2ncc(Br)cc2C1=O | inactive: 0.992
